# PubChem BioAssay AID904 (National Center for Advancing Translational Sciences (NCATS), 2007)
# Hit rate of the full screen: of about 55,000 compounds, about 530 (0.96%) were called active. Inconclusive means that the source gave no clear call. Such entries were picked first, then a sample of the others. Calls follow the shape of the dose curve; as a rule, active = well fitted cell-killing curve with a large enough effect; inconclusive = small, poorly fitted or top-dose-only effect; inactive = no such curve, though single readings can be large or run the other way. Potencies beside an inconclusive call are fits to weak or partial responses and may not hold up.
# Assay: qHTS Screen for Compounds that Selectively Target Cancer Cells with p53 Mutations: Cytotoxicity of p53 Null Cells at the Nonpermissive Temperature; also: nearly all actives have a fitted effect of over 50% in size;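 as to activity, negative = cell killing: 0% = DMSO only and -100% = full killing by 100 µM tamoxifen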
# Details: H1299 p53-null (neo) cells, 39C, ATPlite viability, 24 h; activity, negative = cell killing: at 46.1 µM (top of the series)
# Procedure, shortened: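 Cells seeded at 600/well, 37C overnight. Compound added (up to 46 uM), plates shifted to 39C for 24 hr. ATPlite added, luminescence read after 20 min at room temperature.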
# Potency is read from the fitted curve at half-maximal effect; tags tell the direction and shape of the fitted curve.
Compound,Potency,"activity, negative = cell killing"
CC(C)Oc1ccc(CNC(=O)c2ccc3nc(Cc4ccccc4)oc3c2)cc1,"inconclusive: 12.6 µM [cytotoxic, single point]",–
COc1ccc(OCC(=O)NCCS(=O)(=O)N2CCN(c3cccc(Cl)c3)CC2)cc1,"inconclusive: 0.316 µM [cytotoxic, full curve]",–
COc1ccc(Nc2nc(N)nc(CSc3nc4cc(OC)ccc4s3)n2)cc1,"inconclusive: 20 µM [cytotoxic, single point]",–
CCc1ccc(NC(=O)C(=O)NCC(c2cccnc2)N2CCOCC2)cc1 (centres undefined),"inconclusive: 12.6 µM [cytotoxic, partial curve]",–
CCCCCn1c(=N)n(CC(O)COc2cccc(C)c2)c2ccccc21 (centres undefined),"inconclusive: 20 µM [cytotoxic, single point]",–
Cc1ccc2oc(=O)n(CCNC(=O)Nc3ccc(C)c(F)c3)c2c1,"inconclusive: 12.6 µM [cytotoxic, single point]",–
COc1ccccc1C1C=C(c2ccc(Cl)cc2)Nc2nc(-c3ccc(Cl)cc3)nn21 (centres undefined),–,inactive: 34.5%
COc1ccc(N2CCN(c3csc4ccccc4c3=O)CC2)cc1,"inconclusive: 0.282 µM [cytotoxic, full curve, poor fit]",–
O=C(CSc1c2c(nc3cc(Cl)ccc13)CCCC2)NCc1ccccc1Cl,"inconclusive: 12.6 µM [cytotoxic, partial curve]",–
COc1ccc(NC(=O)C(NC(=O)/C=C\c2ccc3c(c2)OCO3)c2ccccc2)cc1 (centres undefined),–,inactive: 15.3%
CC(=O)c1ccc(N2CCN(C(=O)CCS(=O)(=O)c3ccc4c(c3)oc(=O)n4C)CC2)cc1,–,inactive: -16.1%
COc1ccccc1NC(=O)C1CCC(CNS(=O)(=O)c2ccc3c(c2)CC(C)N3C(C)=O)CC1 (centres undefined),–,inactive: -6.72%
COc1ccc(C)cc1NC(=O)c1ccc2c(c1)nnn2C1CCCC1,"inconclusive: 35.5 µM [cytotoxic, single point]",–
Cn1c(SCc2ccccc2F)nc2c([nH]c3ccccc32)c1=O,–,inactive: -10.4%
COc1cccc(NC(=O)N2CCN(C(=O)c3nsc4ccccc34)CC2)c1,"inconclusive: 0.0251 µM [cytotoxic, full curve]",–
CCOC(=O)c1c(C)[nH]c(C)c1S(=O)(=O)N1CCC(C(=O)Nc2ccc(C)c(Cl)c2)CC1,"inconclusive: 0.01 µM [cytotoxic, full curve, poor fit]",–
CCCOc1cccc(C(=O)Nc2ccc(-c3cc4ccccc4oc3=O)c(C)c2)c1,–,inactive: 9.33%
CCc1ccc(-c2nc(CSCC(=O)N3CCN(c4ccc(F)cc4)CC3)c(C)o2)cc1,–,inactive: -10.4%
CCOc1ccccc1CNC(=O)c1ccc(Cn2c(SCc3ccccc3)nc3cccnc32)cc1,"inconclusive: 14.1 µM [cytotoxic, partial curve]",–
CCCCOc1ccccc1C(=O)Nc1onc2c1CCCC2,–,inactive: 27.5%
CC(C)OCCCNC(=O)CSc1c2c(nc3ccc(Cl)cc13)CCCC2,–,inactive: 85.5%
COc1ccc(Nc2cc(C(=O)NCCCN(C)Cc3ccccc3)c3ccccc3n2)cc1,"inconclusive: 11.2 µM [cytotoxic, partial curve]",–

Compound,Potency,"activity, negative = cell killing"
Cc1cc(C)c2sc(N3CCN(C(=O)C4CC4)CC3)nc2c1,"inconclusive: 12.6 µM [cytotoxic, partial curve]",–
COc1ccc(CNC(=O)c2nc(S(=O)(=O)Cc3ccccc3)ncc2Cl)cc1,active: 12.6 µM,–
CCOC(=O)N1CCN(Cc2nc3cc(NC(=O)c4ccccc4OC)ccc3n2C(C)C)CC1,"inconclusive: 8.91 µM [cytotoxic, partial curve, poor fit]",–
Cc1ccc(-n2c(=O)c3ccc(C(=O)NCc4ccco4)cc3n(Cc3ccc(Cl)cc3)c2=O)cc1,"inconclusive: 10 µM [cytotoxic, single point]",–
O=C(Nc1cccc(Br)c1)c1cc(-c2ccc3c(c2)OCCO3)on1,"inconclusive: 2.24 µM [cytotoxic, full curve, poor fit]",–
Cc1nc2cc(-c3ccccc3)nn2c(C)c1CCC(=O)NCc1cccc(Cl)c1,–,inactive: -26.5%
Clc1ccccc1Nc1ncnc2c1nc1n2CCCCC1,"inconclusive: 20 µM [cytotoxic, single point]",–
Cc1cccc(NS(=O)(=O)c2ccc3nc(-c4ccccc4)[nH]c3c2)c1C,active: 11.2 µM,–
Cc1cccc(Cn2cccc2CNS(=O)(=O)c2ccc(C)c(C)c2)c1,"inconclusive: 31.6 µM [cytotoxic, partial curve]",–
CCN(Cc1ccccc1)C(=O)c1cc2ccc3cccnc3c2[nH]1,"inconclusive: 12.6 µM [cytotoxic, partial curve]",–
CCOc1ccccc1NC(=O)c1cc2ccc3cccnc3c2[nH]1,"inconclusive: 12.6 µM [cytotoxic, partial curve]",–
Cc1cccc(-c2nnc(SCC(=O)NC3CCCCC3)o2)c1,–,inactive: -14.7%
Cc1ccccc1Nc1c(-c2ccccc2O)nc2sccn12,–,inactive: -7.54%
CC(C)Sc1ncc(Cl)c(C(=O)Nc2c(C(=O)Nc3ccccc3)oc3ccccc23)n1,"inconclusive: 7.94 µM [cytotoxic, partial curve]",–
O=C1c2oc3ccccc3c(=O)c2C(c2cccc(O)c2)N1Cc1ccc(F)cc1 (centres undefined),"inconclusive: 15.8 µM [cytotoxic, single point]",–
Cc1ccc(-n2c(SCc3nc(-c4ccc(Cl)cc4)no3)nnc2-c2ccncc2)cc1,"inconclusive: 11.2 µM [cytotoxic, single point]",–
CC1=C(C(=O)OC2CCCCCC2)C(c2ccccc2Cl)CC(=O)N1 (centres undefined),–,inactive: -20.5%
O=C(CCCn1c(=O)c2cccn2c2ccccc21)Nc1cccc(Cl)c1,"inconclusive: 8.91 µM [cytotoxic, single point]",–
CCCOc1ccc(/C=C/C(=O)Nc2sc3c(c2C(=O)OCC)CCC(C)C3)cc1OC (centres undefined),–,inactive: 34.9%
Cc1ccc(C2=NN(CC(=O)NC(C)c3ccccc3)C(=O)CC2)cc1 (centres undefined),"inconclusive: 35.5 µM [cytotoxic, single point]",–
CN1CCN(C(=O)c2cccc(COc3cc(Cl)ccc3Cl)c2)CC1,–,inactive: -15.9%
COc1ccc(/C=C/C(=O)c2ccc[nH]2)c(OC)c1OC,"inconclusive: 11.2 µM [cytotoxic, partial curve]",–
